# Measured values: publication PMC4336329 (PLoS ONE, 2015)
# Out of some 310,000 compounds screened, about 2,200 (0.71%) showed an effect of 50% or more. Effects have a minus sign here. The list shows a part of the results.
# Target: human ether-à-go-go-related gene (hERG) potassium channel (human, UniProt Q12809)
# Assay: primary screen, population patch clamp on CHO cells stably expressing hERG
# human ether-à-go-go-related gene (hERG) potassium channel, sequence (Q12809 whole entry, looked up): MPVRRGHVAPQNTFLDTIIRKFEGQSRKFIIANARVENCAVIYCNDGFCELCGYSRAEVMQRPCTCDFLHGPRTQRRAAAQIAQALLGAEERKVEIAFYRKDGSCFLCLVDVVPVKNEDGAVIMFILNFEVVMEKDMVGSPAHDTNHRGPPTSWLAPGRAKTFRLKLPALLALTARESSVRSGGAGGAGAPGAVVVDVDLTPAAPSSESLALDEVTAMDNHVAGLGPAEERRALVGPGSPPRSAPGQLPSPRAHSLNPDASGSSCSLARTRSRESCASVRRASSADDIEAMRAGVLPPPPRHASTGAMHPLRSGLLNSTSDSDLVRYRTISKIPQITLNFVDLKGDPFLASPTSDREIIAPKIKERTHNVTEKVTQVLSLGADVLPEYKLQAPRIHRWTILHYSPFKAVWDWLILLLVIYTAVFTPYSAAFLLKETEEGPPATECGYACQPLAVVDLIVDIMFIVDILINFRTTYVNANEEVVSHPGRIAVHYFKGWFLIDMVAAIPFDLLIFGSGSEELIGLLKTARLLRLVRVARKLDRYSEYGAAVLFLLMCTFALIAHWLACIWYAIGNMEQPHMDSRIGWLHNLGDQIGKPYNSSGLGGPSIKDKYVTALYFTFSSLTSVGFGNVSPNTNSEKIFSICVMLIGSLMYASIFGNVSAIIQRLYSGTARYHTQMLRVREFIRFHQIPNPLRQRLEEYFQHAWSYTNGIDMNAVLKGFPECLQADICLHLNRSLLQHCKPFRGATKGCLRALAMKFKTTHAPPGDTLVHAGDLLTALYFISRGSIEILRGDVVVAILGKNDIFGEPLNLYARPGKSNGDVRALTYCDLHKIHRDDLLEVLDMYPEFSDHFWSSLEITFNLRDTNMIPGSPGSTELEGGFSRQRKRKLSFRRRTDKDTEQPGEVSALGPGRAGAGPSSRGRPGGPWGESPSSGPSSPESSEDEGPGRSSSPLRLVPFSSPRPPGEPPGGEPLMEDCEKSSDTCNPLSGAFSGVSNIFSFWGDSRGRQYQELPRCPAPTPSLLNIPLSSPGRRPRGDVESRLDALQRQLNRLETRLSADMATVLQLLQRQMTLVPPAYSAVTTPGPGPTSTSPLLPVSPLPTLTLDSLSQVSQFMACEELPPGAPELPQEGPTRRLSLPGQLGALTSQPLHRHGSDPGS
row,SMILES,"hERG current change (%, negative = inhibition) at 1uM [%]"
1,OCC1CCCCN1C(=S)Nc1ccc(Cl)cc1Cl (stereo not shown),11.1
2,O=C(NCc1ccco1)c1ccccc1-c1ccc(C(F)(F)F)cc1,6.7
3,CC1(C)CC2=C(CO1)C(=S)NC(c1ccccc1)N2CC1CCCO1 (stereo not shown),7.6
4,Fc1ccc(C2=CC(c3ccc(Br)o3)n3ncnc3N2)cc1 (stereo not shown),8
5,COc1ccc(NC(=O)N2CCC(c3nc(-c4cccs4)no3)CC2)cc1,1.88
6,CC(=O)c1c(C)nc2ccc(Br)cc2c1-c1ccccc1,9.5
7,COC(=O)c1ccc(CN(C)S(=O)(=O)c2cccs2)cc1,16.9
8,Cc1csc(NC(=O)CS(=O)(=O)Cc2ccccc2)n1,8.42
9,COc1ccc(-c2nc(SCC(=O)NC3CCCC3)c(-c3ccc(OC)cc3)[nH]2)cc1,9.09
10,N/C(CSc1ccc(Cl)cc1)=N\NC(=O)c1ccncc1,7.45
11,Cc1ccccc1NC(=O)NC1(C(=O)NCCCN2CCOCC2)CCCCC1,5.9
12,CC(COc1ccc(/C=C/c2ccccc2)cc1)[N+](C)(C)C.[I-] (stereo not shown),-2.45
13,COc1ccc(Cl)cc1CNCCCSc1ncccn1.Cl,14.9
14,COCc1cc(=O)[nH]c(Nc2nc(C)c3cc(OC)ccc3n2)n1,10
15,Cc1ccccc1Cn1cc(NC(=O)c2nn(C)cc2Cl)cn1,8.33
16,CC(=O)c1cccc(NCC(=O)c2ccc(C)c([N+](=O)[O-])c2)c1,11
17,COc1ccc(N(CC(=O)N/N=C(\C)c2ccc(OC)c(OC)c2)S(=O)(=O)c2ccccc2)cc1,14.3
18,Cc1cccc(C)c1NC(=O)CSCc1cccc(CSCC(=O)Nc2c(C)cccc2C)n1,17.3
19,CCCCn1c(N)c(N(CC(C)C)C(=O)c2ccco2)c(=O)[nH]c1=O,11.9
20,COc1ccc(N2CCN(C(c3ccccc3OC)c3nnnn3Cc3ccco3)CC2)cc1 (stereo not shown),9.42
21,CCN(CC)C(=O)c1ccc(Oc2ccc([N+](=O)[O-])cc2Cl)cc1,-1.5
22,CC1(C)CNC(=O)c2sc(N3CCCCC3)nc2C1,11.1

row,SMILES,"hERG current change (%, negative = inhibition) at 1uM [%]"
1,Cc1ccccc1OC(C)C(=O)N1CCN(c2ccccn2)CC1 (stereo not shown),0.513
2,O=C(CCNC(=O)c1ccc(Cl)cc1)Nc1ccncc1,-0.777
3,O=C(COC(=O)C1CC2C=CC1C2)Nc1ccccc1F (stereo not shown),5.97
4,COc1ccc(S(=O)(=O)N2CCN(C(=O)CSC(=S)N3CCCC3)CC2)cc1,9
5,COCCN(C(=O)COC(=O)/C=C/c1cccs1)c1c(N)n(Cc2ccccc2)c(=O)[nH]c1=O,12.9
6,CCC(C(=O)NC(C)(C)C)N(Cc1ccco1)C(=O)Cn1nnc(-c2ccc(F)cc2)n1 (stereo not shown),8.34
7,Cn1cccc1Cc1nnc(SCC(=O)N2CCOCC2)n1CCc1ccccc1,5.79
8,O=C(COc1ccccc1C(=O)Nc1ccccc1)c1ccc(F)cc1,9.54
9,Nc1ccc(NC(=O)c2cccc(C(=O)Nc3ccc(N)cc3Cl)c2)c(Cl)c1,16.6
10,CCc1ccccc1OCCCOc1ccc(OC)cc1,16.1
11,Cc1ccc(-c2nn(-c3ccccc3)cc2C(=O)N2CCN(C3CCS(=O)(=O)C3)CC2)cc1 (stereo not shown),-33.5
12,Cc1[nH]c2ccccc2c1C(=O)CN1C(=O)NC2(CC(C)CC(C)(C)C2)C1=O (stereo not shown),0.747
13,Cc1ccc(N=Cc2c(O)ccc3ccccc23)cc1F,18.4
14,CC1CCN(C(=O)COC(=O)C2CCN(S(=O)(=O)c3ccc(Cl)c(C(F)(F)F)c3)CC2)CC1,1.65
15,CCCc1nn(-c2ccccc2)c2c1C(c1cccs1)C(C#N)=C(N)O2 (stereo not shown),3.84
16,COc1cccc(OC)c1C(=O)N1CC(C)OC(C)C1 (stereo not shown),9.43
17,COc1ccc(C(=O)NC(=S)NNC(=O)c2c(-c3ccccc3)noc2C)cc1OC,6.13
18,CCN1CCc2nc(NC(=O)c3ccccc3)sc2C1,16.3
19,Cc1ccc(Cl)cc1Nc1nc(-c2sc(NC(=O)c3cccc(Cl)c3)nc2C)cs1,19.9
20,N#Cc1c2n(c3c(N)ncnc13)CCCCC2,7.43
21,CCc1ccccc1NC(=O)CN(c1ccc(OC)cc1OC)S(=O)(=O)c1ccccc1[N+](=O)[O-],16.4
22,O=C1C(Cl)=C(NC2CCCCC2)C(=O)N1c1ccc(Cl)cc1,5.62

row,SMILES,"hERG current change (%, negative = inhibition) at 1uM [%]"
1,CC(NS(=O)(=O)OCC(Cl)(Cl)Cl)c1ccccc1 (stereo not shown),14.5
2,C/C(CC(=O)N1CCN(C=O)CC1)=N\NC(=O)c1ccc(Cl)cc1,16.1
3,COc1ccc(NC(=O)CCC2COc3ccccc3O2)c(OC)c1 (stereo not shown),-5.45
4,Cn1c(SCC(=O)NCCNC(=O)CSc2nnc(C(F)(F)F)n2C)nnc1C(F)(F)F,5.79
5,CCCN(S(=O)(=O)c1ccccc1F)S(=O)(=O)c1ccccc1Br,11.3
6,Cc1cc2ccccn2c1C(=O)c1ccncc1,-0.461
7,O=[N+]([O-])c1ccc(NC2CCN(Cc3ccccc3)CC2)c([N+](=O)[O-])c1,-60
8,O=S(=O)(c1ccccc1)N1CCN(C/C=C/c2ccccc2)CC1,1.74
9,COc1cc(/C=c2\sc3nc(=O)c(-c4ccccc4)nn3c2=O)ccc1OCCC(C)C,4.36
10,c1ccc(CSc2nnc(-c3cccs3)o2)cc1,5.53
11,COc1ccc(CCNC(=S)NC(=O)c2ccc(Br)cc2)cc1OC,5.49
12,C=CCn1c(=O)/c(=C\c2ccccn2)s/c1=C(/C#N)C(=O)NCC1CCCO1 (stereo not shown),5.33
13,CSc1nnc([C@@H]2CCCN2C(=O)OC(C)(C)C)o1,13.9
14,Cc1c(-n2c(SCC(C)C)nc3ccccc3c2=O)c(=O)n(-c2ccccc2)n1C,5.73
15,CC(C)OP(=O)(OC(C)C)C(NC(=O)c1ccccc1)C(N)=O (stereo not shown),-1.3
16,CCCCc1cc(=O)oc2cc(OCC(=O)NCCN3CCOCC3)c(Cl)cc12,11.6
17,COc1ccccc1C(=O)NC(=O)COc1ccc(Cl)cc1Cl,6.45
18,CN(C)C(=O)/C(=C\c1cccc(Oc2ccccc2)c1)NC(=O)c1ccccc1,11.1
19,Cc1c(NC(=O)/C(C#N)=C/c2ccc(-c3ccccc3Cl)o2)c(=O)n(-c2ccccc2)n1C,3
20,N#Cc1nc(-c2cccc3ccccc23)oc1N1CCCCC1,5.75
21,NC(=S)N/N=C/c1c(O)c(Br)cc2oc3c(c12)CCCC3,11.3
22,CCOC(=O)C1=C(N)N(c2cc(S(=O)(=O)N3CCOCC3)ccc2Cl)C(=O)C1,11.3

row,SMILES,"hERG current change (%, negative = inhibition) at 1uM [%]"
1,COc1ccccc1CNC(=O)c1ccc(-c2ccccc2)cc1,5.79
2,Cc1ccc2c(c1C)NC(C(=O)O)C1CC=CC21 (stereo not shown),14.4
3,CCc1cccc(NC(=O)c2cnn(-c3ccccc3)c2C)c1,-19.9
4,CCC1CCCCN1C(=O)c1sc2nc(C)nc(N(CC)CC)c2c1C (stereo not shown),5.72
5,Clc1ccc(-c2nnc(COc3ncnc4sccc34)o2)cc1,8.77
6,CN(CC(=O)Nc1ccc(F)c(F)c1F)C(=O)CCCSc1nc2ccccc2[nH]1,8.51
7,CS(=O)(=O)c1ccc(C(=O)OCC(=O)NNC(=O)COc2ccc(Cl)cc2)cc1,14.6
8,CC1(c2ccc(OC(F)F)cc2)NC(=O)N(CC(=O)NC2CCCCC2)C1=O (stereo not shown),-23.2
9,COc1ccc(CCCc2nnc(SCC(=O)Nc3ccc(C)c(C)c3)o2)cc1,-0.306
10,CC(C)c1ccc(/C=C/C(=O)O)cc1,8.72
11,COc1cc(/C=C/c2cc(OC(C)=O)c3ccccc3n2)c(OC(C)=O)c([N+](=O)[O-])c1,9.99
12,C/C(=N\NC(=O)c1c(Cl)cnn1C)c1cccc(NC(=O)COc2ccccc2)c1,9.23
13,COc1ccccc1N1CCN(CCCCOc2ccc(C)cc2C)CC1.O=C(O)C(=O)O,-4.13
14,COc1cc(OC)cc(-c2nc3nc(C)c(CCC(=O)NCc4ccco4)c(C)n3n2)c1,5.21
15,CN1CCN(Cc2cc(=O)n3ccsc3n2)CC1,11.7
16,CCC(=O)c1cn([C@@H](CCC(OC)OC)CC(=O)OC(C)(C)C)cc1CC,13
17,c1ccc(CSc2cc3ccccc3[nH]2)cc1,10.1
18,COc1cc(Nc2cc(C)nc3ncnn23)cc(OC)c1OC,9.01
19,CC(C)OCCCNC(=O)Nc1cccc2ccccc12,1.49
20,CC(C)Cc1nc2oc3c(N4CCN(CCO)CC4)ncnc3c2c2c1CCCC2,0.842
21,Cc1ccc(NC(=O)c2cccc(OCc3c(C)noc3C)c2)cc1,-0.977
22,NC(=O)CSc1oc(-c2ccco2)nc1S(=O)(=O)c1ccc(F)cc1,13.3
